Laboratory results taken from PubChem BioAssay AID651820 (National Center for Advancing Translational Sciences (NCATS), 2012).
Several values for one entry are separate records, joined by “and”; a condition that tells them apart may be missing. Identical values can stand only once. Out of some 340,000 compounds screened, about 12,000 (3.5%) were called active. The shares of active, inactive and inconclusive entries below differ from those in the screen. The call rests on the fitted dose curve; in most records, active means well fitted inhibition curve with a large enough effect; inconclusive means small, poorly fitted or top-dose-only effect, or another doubt; inactive means no such curve, though single readings can be large or run the other way. Potencies of inconclusive entries are left out as doubtful fits. More than one record can exist for a structure, and the calls need not agree.

test: qHTS Assay for Inhibitors of Hepatitis C Virus (HCV); details: Huh7.5.1 HCVcc-Cre (HCVcc is cell-culture hepatitis C virus) infection, luciferase reporter, 44 h; series mostly up to 41.8 µM
Method in brief: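 Cells seeded at 1,000/well and cultured 4 h, then compounds added followed by HCVcc-Cre virus (~0.5 moi). After 44 h further culture, luciferase substrate was added, plates held 15 min at room temperature, and luminescence read for 15 sec.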
Potency means the concentration at half of the fitted maximal effect; tags describe the fitted curve by direction and shape.

Row | Compound | Potency
1 | OC(CNCC1CCCO1)Cn1c2ccc(Cl)cc2c2cc(Cl)ccc21 (centres undefined) | inconclusive [inhibitor, single point]
2 | O=C(Cn1nnc(-c2cccs2)n1)N1CCOCC1 | inactive
3 | c1ccc2oc(-c3ccc4nc[nH]c4c3)nc2c1 | inconclusive [inhibitor, partial curve]
4 | CCn1nc(C)c(/C=C/C(=O)Nc2ccc(C)cc2C)c1C | inactive
5 | O=C1CC(/C=C/c2ccc([N+](=O)[O-])cc2)=Nc2ccccc2N1 | inconclusive [inhibitor, single point]
6 | N=c1n(CC(=O)c2cccc([N+](=O)[O-])c2)c2ccccc2n1Cc1ccccc1 | inconclusive [inhibitor, partial curve, poor fit]
7 | CCOC(=O)c1cc2cc(OCc3ccccc3)ccc2nc1C | inconclusive [inhibitor, partial curve]
8 | O=C1[C@@H]2Cc3c([nH]c4ccccc34)C(c3ccccc3)N2C(=O)CN1CCO (some centres undefined) | inactive
9 | Cc1nc(CN(C)Cc2nc(Cc3ccccc3Cl)no2)cs1 | inactive
10 | C/C(CC(=O)Nc1cccc(Cl)c1Cl)=N\NC(=O)C(=O)N1CCCC1 | inactive
11 | COc1ccc(N(Cc2cc3ccc(C)cc3[nH]c2=O)S(=O)(=O)c2ccccc2)cc1 | inconclusive [inhibitor, single point]
12 | CCCC(=O)Nc1nc(-c2ccc3c(c2)CCN3S(C)(=O)=O)cs1 | active: 12.6 µM
13 | CC1=CC(=Cc2sc3ccccc3[n+]2C)C=C(C)O1 | active: 5.01 µM
14 | Cc1c(C(=O)NCCSCc2ccc(Cl)cc2Cl)cccc1[N+](=O)[O-] | inconclusive [inhibitor, single point]
15 | COc1ccc(C2CC(=O)C3=C(C2)Nc2ccccc2NC3c2coc3ccccc3c2=O)cc1OC (centres undefined) | inactive
16 | O=C(Nc1ccc(OCC(F)(F)C(F)F)c(C(F)(F)F)c1)c1ccccc1O | active: 6.31 µM
17 | CN1CCC(N(C)S(=O)(=O)c2ccc(NC(=O)COc3ccc(Cl)cc3)cc2)CC1 | active: 12.6 µM
18 | CCCCOc1ccc(Cl)cc1CSc1nnc(CC)n1N | inconclusive [inhibitor, partial curve]
19 | COc1ccccc1CNC(=O)c1cc(-c2ccncc2)nc2c(Cl)cccc12 | inconclusive [inhibitor, full curve]
20 | C=CCn1cc(C(=O)NCc2ccc3c(c2)OCO3)c(=O)c2cc(S(=O)(=O)N(CC)CC)ccc21 | inconclusive [inhibitor, single point]
21 | COc1cc(NC(=O)C(C)Oc2ccccc2)ccc1NC(=O)COc1ccccc1 (centres undefined) | inconclusive [inhibitor, partial curve]
22 | CCc1ccc(-c2cc(C)no2)cc1S(=O)(=O)N1CCOc2ccccc21 | active: 11.2 µM
23 | CCOc1ccc(S(=O)(=O)N2CCN(C(=S)NCc3ccccc3)CC2)cc1 | inconclusive [inhibitor, single point]
24 | COC(=O)c1nc2cc(C)ccn2c1F | inconclusive [inhibitor, single point]
25 | Cc1ccsc1C(=O)OCC(=O)NC1CCCC(C)C1C (centres undefined) | inactive

Row | Compound | Potency
26 | COc1ccc(Cl)cc1NC(=O)C[n+]1ccccc1 | inconclusive [inhibitor, single point]
27 | O=C(Cc1nnc(NC(=O)Nc2ccccc2)s1)Nc1ccccc1 | inactive
28 | COc1cccc(NC(=S)N(CCc2c(C)[nH]c3ccccc23)Cc2cccs2)c1 | inconclusive [inhibitor, single point]
29 | COCCCn1c(SCc2cccc(OC)c2)nc2cc(OC)c(OC)cc2c1=N | active: 7.08 µM
30 | CCOC(=O)C[n+]1ccc2c([nH]c3ccccc32)c1C | inactive
31 | OCC1CCCN(c2nc(CN3CCCCC3)nc3scc(-c4ccccc4)c23)C1 (centres undefined) | inconclusive [inhibitor, single point]
32 | CN(CC(=O)NCCc1ccc(F)cc1)Cc1cccc(Cl)c1 | inactive
33 | COc1ccc2[nH]c3c4c(ccc3c2c1)C(=O)C=CC4=O | inconclusive [inhibitor, single point]
34 | CCOC(=O)c1ccc(N/C(=N/S(=O)(=O)c2ccccc2)c2ccccc2)cc1 | inconclusive [inhibitor, single point]
35 | CCCCn1c(NCc2ccc3c(c2)OCO3)nc2ccccc21 | inconclusive [inhibitor, partial curve]
36 | COc1ccc(C(=O)Nc2ccnn2C2CCN(CCC(C)c3ccc(C)o3)CC2)cc1 (centres undefined) | inconclusive [inhibitor, partial curve]
37 | CC1C(O)=C(c2nc3ccccc3[nH]2)C(=N)N1c1ccccc1 (centres undefined) | inconclusive [inhibitor, single point]
38 | CC1CC(Nc2ccccc2)=CC(=O)O1 (centres undefined) | inactive
39 | CC(NS(=O)(=O)c1ccc(Br)cc1)C(=O)NCc1ccco1 (centres undefined) | inconclusive [inhibitor, full curve]
40 | CCCNC(=S)Nc1ccc(Br)cc1 | inactive
41 | Cc1csc(NC(=O)c2nc3nccc(C)n3n2)n1 | inactive
42 | COc1ccc(/C(C)=N/NC(=O)CN(c2ccc(OC)cc2)S(=O)(=O)c2ccccc2)cc1 | inactive
43 | O=C(/C=C/c1c[nH]c2ccccc12)c1c(O)n(CCc2ccccc2)c(=O)[nH]c1=O | inactive
44 | CCCNC(=O)c1ccc(COc2cccc3ccccc23)o1 | inconclusive [inhibitor, partial curve]
45 | Cc1c(C(=O)NCc2cccnc2)oc2ccc(S(=O)(=O)N3CCCCCC3)cc12 | inactive and active: 11.2 µM
46 | Cc1cc(COc2ccccc2OCc2cc(C)no2)on1 | inconclusive [inhibitor, single point]
47 | Cc1noc(C)c1COc1ccc(C(=O)NCCc2ccccn2)cc1 | inactive
48 | Cc1cccc(NC(=O)CSc2nc3ccc(N4C(=O)c5ccccc5C4=O)cc3s2)c1C | inactive
49 | O=C(c1cccc(F)c1)N1CCN(c2cccc(C(F)(F)F)c2)CC1 | inconclusive [inhibitor, single point]
